# Laboratory results as given in the supplement of paper PMC8728848.
# The list shows a part of the results.
# Columns and labels:
# Experiment in all cases: glycan array binding signal (z-score within array); higher = stronger binding
# Details in all cases: glycan notation: IUPAC condensed, linker removed
# [1] = target: Gal(b1-4)GlcNAc(b1-3)Gal(b1-4)GlcNAc(b1-3)Gal(b1-4)GlcNAc(b1-2)Man(a1-3)[Gal(b1-4)GlcNAc(b1-3)Gal(b1-4)GlcNAc(b1-3)Gal(b1-4)GlcNAc(b1-2)Man(a1-6)]Man(b1-4)GlcNAc(b1-4)GlcNAc
# Summary of the method: (§1)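 From the Consortium for Functional Glycomics database, 3228 arrays were curated, keeping only those whose protein sequence was available. Binding is given as a within-array Z-score averaged across arrays sharing a protein sequence and across linkers. Negative Z-scores can be read as non-binding.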
# [2] = target: Gal(b1-4)GlcNAc(b1-3)Gal(b1-4)GlcNAc(b1-3)Gal(b1-4)GlcNAc(b1-2)Man(a1-3)[Gal(b1-4)GlcNAc(b1-3)Gal(b1-4)GlcNAc(b1-3)Gal(b1-4)GlcNAc(b1-2)Man(a1-6)]Man(b1-4)GlcNAc(b1-4)[Fuc(a1-6)]GlcNAc
# Summary of the method: as §1
# [3] = target: Gal(b1-4)GlcNAc(b1-3)Gal(b1-4)GlcNAc(b1-3)Gal(b1-4)GlcNAc(b1-2)[Gal(b1-4)GlcNAc(b1-3)Gal(b1-4)GlcNAc(b1-3)Gal(b1-4)GlcNAc(b1-6)]Man(a1-6)[Gal(b1-4)GlcNAc(b1-3)Gal(b1-4)GlcNAc(b1-3)Gal(b1-4)GlcNAc(b1-2)Man(a1-3)]Man(b1-4)GlcNAc(b1-4)[Fuc(a1-6)]GlcNAc
# Summary of the method: as §1
# [4] = target: Gal(b1-4)GlcNAc(b1-3)Gal(b1-4)GlcNAc(b1-3)Gal(b1-4)GlcNAc(b1-3)Gal(b1-4)GlcNAc(b1-2)Man(a1-3)[Gal(b1-4)GlcNAc(b1-3)Gal(b1-4)GlcNAc(b1-3)Gal(b1-4)GlcNAc(b1-3)Gal(b1-4)GlcNAc(b1-2)Man(a1-6)]Man(b1-4)GlcNAc(b1-4)GlcNAc
# Summary of the method: as §1
# [5] = target: Gal(b1-4)GlcNAc(b1-3)Gal(b1-4)GlcNAc(b1-3)Gal(b1-4)GlcNAc(b1-3)Gal(b1-4)GlcNAc(b1-2)Man(a1-3)[Gal(b1-4)GlcNAc(b1-3)Gal(b1-4)GlcNAc(b1-3)Gal(b1-4)GlcNAc(b1-3)Gal(b1-4)GlcNAc(b1-2)Man(a1-6)]Man(b1-4)GlcNAc(b1-4)[Fuc(a1-6)]GlcNAc
# Summary of the method: as §1
# [6] = target: Gal(b1-4)GlcNAc(b1-3)Gal(b1-4)GlcNAc(b1-3)Gal(b1-4)GlcNAc(b1-3)Gal(b1-4)GlcNAc(b1-2)[Gal(b1-4)GlcNAc(b1-3)Gal(b1-4)GlcNAc(b1-3)Gal(b1-4)GlcNAc(b1-3)Gal(b1-4)GlcNAc(b1-6)]Man(a1-6)[Gal(b1-4)GlcNAc(b1-3)Gal(b1-4)GlcNAc(b1-3)Gal(b1-4)GlcNAc(b1-3)Gal(b1-4)GlcNAc(b1-2)Man(a1-3)]Man(b1-4)GlcNAc(b1-4)[Fuc(a1-6)]GlcNAc
# Summary of the method: as §1
# [7] = target: Gal(b1-4)GlcNAc(b1-3)Gal(b1-4)GlcNAc(b1-3)Gal(b1-4)GlcNAc(b1-3)Gal(b1-4)GlcNAc(b1-3)Gal(b1-4)GlcNAc(b1-2)Man(a1-3)[Gal(b1-4)GlcNAc(b1-3)Gal(b1-4)GlcNAc(b1-3)Gal(b1-4)GlcNAc(b1-3)Gal(b1-4)GlcNAc(b1-3)Gal(b1-4)GlcNAc(b1-2)Man(a1-6)]Man(b1-4)GlcNAc(b1-4)GlcNAc
# Summary of the method: as §1
# [8] = target: Gal(b1-4)GlcNAc(b1-3)Gal(b1-4)GlcNAc(b1-3)Gal(b1-4)GlcNAc(b1-3)Gal(b1-4)GlcNAc(b1-3)Gal(b1-4)GlcNAc(b1-2)Man(a1-3)[Gal(b1-4)GlcNAc(b1-3)Gal(b1-4)GlcNAc(b1-3)Gal(b1-4)GlcNAc(b1-3)Gal(b1-4)GlcNAc(b1-3)Gal(b1-4)GlcNAc(b1-2)Man(a1-6)]Man(b1-4)GlcNAc(b1-4)[Fuc(a1-6)]GlcNAc
# Summary of the method: as §1
# [9] = target: Gal(b1-4)GlcNAc(b1-3)Gal(b1-4)GlcNAc(b1-3)Gal(b1-4)GlcNAc(b1-3)Gal(b1-4)GlcNAc(b1-3)Gal(b1-4)GlcNAc(b1-2)[Gal(b1-4)GlcNAc(b1-3)Gal(b1-4)GlcNAc(b1-3)Gal(b1-4)GlcNAc(b1-3)Gal(b1-4)GlcNAc(b1-3)Gal(b1-4)GlcNAc(b1-6)]Man(a1-6)[Gal(b1-4)GlcNAc(b1-3)Gal(b1-4)GlcNAc(b1-3)Gal(b1-4)GlcNAc(b1-3)Gal(b1-4)GlcNAc(b1-3)Gal(b1-4)GlcNAc(b1-2)Man(a1-3)]Man(b1-4)GlcNAc(b1-4)[Fuc(a1-6)]GlcNAc
# Summary of the method: as §1
# [10] = target: Gal(b1-4)GlcNAc(b1-3)Gal(b1-4)GlcNAc(b1-3)Gal(b1-4)GlcNAc(b1-3)Gal(b1-4)GlcNAc(b1-3)Gal(b1-4)GlcNAc(b1-3)Gal(b1-4)GlcNAc(b1-2)Man(a1-3)[Gal(b1-4)GlcNAc(b1-3)Gal(b1-4)GlcNAc(b1-3)Gal(b1-4)GlcNAc(b1-3)Gal(b1-4)GlcNAc(b1-3)Gal(b1-4)GlcNAc(b1-3)Gal(b1-4)GlcNAc(b1-2)Man(a1-6)]Man(b1-4)GlcNAc(b1-4)GlcNAc
# Summary of the method: as §1
# [11] = target: Gal(b1-4)GlcNAc(b1-3)Gal(b1-4)GlcNAc(b1-3)GalNAc
# Summary of the method: as §1
# [12] = target: Gal(b1-4)GlcNAc(b1-3)Gal(b1-4)GlcNAc(b1-3)[Gal(b1-4)GlcNAc(b1-3)Gal(b1-4)GlcNAc(b1-6)]GalNAc
# Summary of the method: as §1
# [13] = target: Gal(b1-4)GlcNAc(b1-3)Gal(b1-4)GlcNAc(b1-6)[Gal(b1-3)]GalNAc
# Summary of the method: as §1
# [14] = target: Gal(b1-4)GlcNAc(b1-3)Gal(b1-4)[Fuc(a1-3)]GlcNAc(b1-3)Gal(b1-4)[Fuc(a1-3)]GlcNAc
# Summary of the method: as §1
# [15] = target: Gal(b1-4)GlcNAc(b1-3)GalNAc
# Summary of the method: as §1
# [16] = target: Gal(b1-4)GlcNAc(b1-3)[Fuc(a1-3)GlcNAc(b1-6)]Gal(b1-4)Glc
# Summary of the method: as §1
# [17] = target: Gal(b1-4)GlcNAc(b1-3)[Gal(b1-4)GlcNAc(b1-6)]Gal(b1-4)GlcNAc
# Summary of the method: as §1
# [18] = target: Gal(b1-4)GlcNAc(b1-3)[GlcNAc(b1-6)]Gal(b1-4)GlcNAc
# Summary of the method: as §1
# [19] = target: Gal(b1-4)GlcNAc(b1-6)Gal(b1-4)GlcNAc
# Summary of the method: as §1
binder,measurement,setting,value
PX9961V-pdi-562-26-562 (Parabacteroides distasonis) (protein) EIFSEITTDNYYQNSNNIYAALVNNYAKAFSTGWSDARYFLQEVTADQLMIPTRGKHGYNGGEYVRLHEHKWTVEENFVYNGWAAPFQGIALCNNTLSDFENLDFSTFKLTEETKNEYIAELRALRVWNYMFLIDFFRHVPIVTDIEEVKAQSTPLEVFNFMESELLAILPDLPKNRGVSRFDQAGVASILVRLYLNAEKWIGISKYDECEQMAQAILDGKYGEYSIDPDYRGPFRSGINGYRSKENIMEFAIKKNYFEASWLYNMWMHYQDRYSLDNDWQGWNGGNLAPSRDLYGNLYQDKLGMPFEKFPDGDIRKKAFRVISNDGDYEGFFLMGTQYKFDYEKGYGFTDEVITGTEEYNGKPLVYVDQVGRFSEGETGLAKGSHVIYGEENTGYRLIKFPWLPQSKDLFQMNSIPEIRLAEIYYSLAECKYRSGDKIGAARLLDVVRKRYYKAEDWSKFSYESNISKLTDDEFVDELGREFIGERHRRIDLIRWNRFSEGAWWDKTPDATNQDVFPIPYRALNANPLLKQTTAGF,glycan array binding signal (z-score),[1],4.36
same,glycan array binding signal (z-score),[2],3.17
same,glycan array binding signal (z-score),[3],2.98
same,glycan array binding signal (z-score),[4],1.39
same,glycan array binding signal (z-score),[5],2.85
same,glycan array binding signal (z-score),[6],1.56
same,glycan array binding signal (z-score),[7],1.16
same,glycan array binding signal (z-score),[8],0.336
same,glycan array binding signal (z-score),[9],1.6
same,glycan array binding signal (z-score),[10],1.64
same,glycan array binding signal (z-score),[11],2.34
same,glycan array binding signal (z-score),[12],0.667
same,glycan array binding signal (z-score),[13],0.408
same,glycan array binding signal (z-score),[14],-0.412
same,glycan array binding signal (z-score),[15],-0.478
same,glycan array binding signal (z-score),[16],-0.429
same,glycan array binding signal (z-score),[17],0.575
same,glycan array binding signal (z-score),[18],-0.498
same,glycan array binding signal (z-score),[19],-0.386
